Source: the supplement of paper PMC12632987
Over roughly 4,500 sequences, “median log2 fold change of GCK-ALFA target abundance (FLAG IP / Myc IP barcode read proportion)” has its median near 0.078; the lowest 2% begin near -0.6. The list shows a part of the results.

B1: GBRAP_137_3665 (protein)
chain: MKVKVEVKLEGNFAEITIKADTKELMEKAEDIIDEAAKETGVAYAIHIDEENKEVTVDLYGEREKLKKFIERVVKKLSEIADVEYTLEEDGKVTKEFLKK
B2: GBRAP_11_2894 (protein)
chain: KLEKLEEAAELAKEVIELLEKLKEEGVDDEELREKLREKAEKLLELAKESLDESDVELVKEIIELVEKAEEDPENAEQYIDEALALARTLLGQILLEIEE
B3: GBRAP_160_4788 (protein)
chain: SERVERASKLLREELEEAIELSKGETTEERVNIFDVEIGSAIMELIEEGLLNDEEEEVLARVRDELVATIRANPDLTEEELRALAEEAVERFRRELEKLE
B4: GBRAP_95_7014 (protein)
chain: EDDQLAADSAAEVLETAVDLGDEEAARRAARRLVAILVENPAVKFPADISPAAARVILEEARRELDPATALAIARRLEADAADPAVKALAAAAAAEIEAA
B5: GBRAP_137_3652 (protein)
chain: MTVNIDVEIDGDFASITIKADTKELAELSADILYETAKKHGVAIAISLDLENKTVNADLLGEKEKIRAAIKDFVAELSKKADVNLTLTEDGKTTKTTIKK
B6: GBRAP_117_2576 (protein)
chain: MMSKEEMKKKVYETVKKVIEKLKEAEKLSPEEREKVLKELKEEMKKVVREALEILSEEEVEEIVEEALLEADAKTYFEAESIFLEALEEVRREREEEERR
B7: GBRAP_160_4594 (protein)
chain: SEETEKLIKKIKEIVEEAKEMIKGESHEERLTVIRVMVGDILLELSSSSIVSDELEEKADELGRELIETVEKNKDLTEEEIIELINEMEEKIIKAIEEES
B8: GBRAP_160_4375 (protein)
chain: SEELKELIKEIEELKKEFEELAKDLSPEEVKILAKGVLSEIAALVFENEAVSEETKDKIMEIIDKALEELDKLKDASPEEIVAVTTEAVNEIIELIKKEI
B9: GBRAP_125_3005 (protein)
chain: DLEVVVEAIRRLLERAGEDESLIEEAARLAREHGGKQTLIAVAYALGDEELAELLERLSEEQVVEVARRLLAYLEAHPDATLEEVLAKWRELAEEALAAA
B10: GBRAP_117_2579 (protein)
chain: SEEKERVKERLRETIREAGKRIEAAKSLSPEERQKVLEEVRKEIAEAVREALKVLSREEVLDIVEETLLEFNAETYFEISSFVADAIEEIREEEEERRRR
B11: GBRAP_35_5601 (protein)
chain: ETDEFAAESLIDLIEALIEGVPEEDVETLAAIGNTLAKFAKELIEDLKNNKELLKKLAEALKKLIEALKKHHGDNPLMQELIKKFEELLKEAEKKIEEIE
B12: GBRAP_166_4982 (protein)
chain: SQEELVEELKKYIDEQAEKAKTANAEERQELVAEVAEKIAEAREEGLSDEDLRELIRYALEQFAKVGVPVSAVEGALSILADLDEEEIDILIEARDEVLA
B13: GBRAP_52_5955 (protein)
chain: MRERLRELVEELIELVKAGKLEEARELAREIAETLNDEELRLFAEEFARRAREASPEDWDAIFKAAEIVADELLEEGRDPALAGELLARVAAAIYEKEQA
B14: GBRAP_166_4962 (protein)
chain: KQEELVERLKKLIKEKAEKAKTATPEEKLELLAEVAEELGKAKEEGLSKESLRELIRHTLEEFSAVGLTLSQVEGALTILANLDEEEIDILEEAIKEVKA
B15: GBRAP_160_4578 (protein)
chain: SEKEKKAIEILNEATEEVLSLVDEVSLEELINFTEVEFGSAILELLDEGLISWETADKMMEIVDELVATLKANPNLTPEERKALIEEAKKKMEEAIKEEY
B16: GBRAP_74_6508 (protein)
chain: EEELLAALRAAAAAKDARAVAELLREIVKTGSLEAIEEAARIVVAFVDAHLDELSPEELEALADALAELADKLMELGGDSDVVRAVVAAAVRLEERLAAL
B17: GBRAP_128_3415 (protein)
chain: PDAALVARTRELLDAMLTADPETARALAEEIVALIMEADLETAEAIGEVILARLPQLTAEQLEILADAIRAALPAATPEKAEILADVLVEALNEAEEKEE
B18: GBRAP_14_3854 (protein)
chain: MEKLIAAVKKTAEAAIEFAKELLPEHAEEVGKKIKELAEKIIEKIKKENLNKEEVAELIRKMAEELGKFIKEKGYASDEEIAAFKAFIENEALLELEKVE
B19: GBRAP_160_4110 (protein)
chain: SEAAKKLIEDLKEEAEEVLSLAPEVSNEEFVNDFEVEFGSVILDAMEELGISMETADELLEIVDKAAEELRKAGDAPLEEKEKIVEEAIEEMKKVVEKHA
B20: GBRAP_78_6725 (protein)
chain: ELEELIDKAIEELNKAAREAQKLPEEAANEILGLLVDAMSDLVEAEENGGDLEELERAKKYVEEALKLAEKLKSKEAEPLIKELKKALELLEKAIKLKKE
B21: GBRAP_128_3410 (protein)
chain: SMEEKVEEAKELLEKMLTADEEERRKLARELAELLLESDLETVEKIVEVILEMLPKFTAEQLEILADELEKRLDEFSPEKQELVSEVIVEALNEAEELEE
B22: GBRAP_11_2838 (protein)
chain: KKEELKELAERAEELARELERLIASGAPTEEELRELLERAKEFLKEVKKSGDKSAAKVAEIAVEEIEEAIANPETQQQHLENALAAFRVLEGLYLLELEE
B23: GBRAP_80_6857 (protein)
chain: AEAELEKALAELEKLLPEVAEDAKEIVKLAREMGVPDEEIAELMKALAELAKVDPEKAAKLIKELLEDLKELKEEGDSERALAVIRGYAGEALMEAEELE
B24: GBRAP_150_3898 (protein)
chain: SLELALLLAETALDLVEGILDGEYSLLPHAIKLLKKLVEELKEIDKELAEKAKKALELVEEAKKLIEEGGDPEEVQKLLEEALKILKELVKEIKKKIEEE
B25: GBRAP_125_3026 (protein)
chain: SEEELVEDLGRIAAALGFSEGDVEELMREARRHGIKGAFIALALAEGLEEAAELAEKLSEEEVKEVVREVAAWLEAHPDATPEEVKEKILEVLKKAVAKS
B26: GBRAP_160_4755 (protein)
chain: KEELKKLKKEIKEIFEEYKEILKEVPKEEAPTVIRGAAGEVLMEVMSSDAASDELEEEIGKILDEAVKEAEANKDKPVEYHIEILEKAEKEILELIEKEI
B27: GBRAP_26_5423 (protein)
chain: LEEAVRAALDRLGAVLDALLDPETAAAARAEATDLLLEMDEKVEEEDLSEEEVEALAAEVLEEFAEALDELGVPADARARLVAALQEELDRLIAAWKASR
B28: GBRAP_160_4154 (protein)
chain: SAEIKKLIEEIKKIAEEAIKMMEGETPEEAKTIAKVALGEMLLLVEENPAVSEETEEKIGKIVDETEAKLDANPDLTVEEVKELLKEAEKKIVEILEKEA
B29: GBRAP_78_6614 (protein)
chain: EKKEKIEELLEKAAELLREVIKKSPELANEAADALVLVGTAIYMVTTGSESKEELEETVKEAAKELEELLKKAKDAKEEVQEKVKKALELVKEALKLLKE

Each binder was assayed against GABARAP, O95166 (assay: median log2 fold change of GCK-ALFA target abundance (FLAG IP / Myc IP barcode read proportion) (log2 ratio); each designed protein is fused to an ALFA-tag nanobody in HEK293 cells to bring the named protein to FLAG-tagged glucokinase (GCK); Myc marks an untargeted standard; higher = target protein stabilised (more abundant)). Details: target protein: 3xFLAG-MCP-GCK-ALFA reporter; HEK293 landing pad (RPLP).
Description: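 LABEL-seq trans screen in HEK293 landing-pad cells. Each de novo designed 100-aa effector handle, binding the indicated effector (E3 ligase, DUB or autophagy protein), is fused to a constant NbALFA target handle and induced with 2 ug/mL doxycycline. A FLAG-MCP-GCK-ALFA target and a Myc-MCP standard reporter were transfected, and after 48 h circRNA barcodes were recovered by anti-FLAG and anti-Myc IP and sequenced. The value is the median across barcodes (at least 3 per design) of log2(FLAG/Myc read-proportion ratio), with the two transfection replicates pooled. Negative values mean degradation and positive values mean stabilisation of the target.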

Sequence of GABARAP, O95166 (O95166 whole entry, the tested form may be a part): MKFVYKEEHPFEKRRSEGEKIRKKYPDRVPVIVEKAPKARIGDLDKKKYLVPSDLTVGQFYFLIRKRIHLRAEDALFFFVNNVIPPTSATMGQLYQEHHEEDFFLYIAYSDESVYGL

Binder	median log2 fold change
B1	0.368
B2	0.331
B3	0.267
B4	0.296
B5	0.0956
B6	0.21
B7	-0.49
B8	0.194
B9	-0.325
B10	0.0969
B11	-0.269
B12	0.0312
B13	-0.0212
B14	0.0899
B15	-0.487
B16	0.0957
B17	0.132
B18	0.381
B19	-0.205
B20	0.105
B21	0.163
B22	-0.117
B23	0.252
B24	0.359
B25	0.0798
B26	-0.0479
B27	-0.0377
B28	0.135
B29	0.25
